Measurements taken from the supplement of paper PMC4723716.
± gives the uncertainty stated by the source. Whole data set: some 9,900 compounds, median “viability index relative to DMSO control” near 1, cut for the lowest 2% near 0.85. The list shows a part of the results.

System: Plasmodium falciparum NF54 stage V gametocytes
Assay: viability index relative to DMSO control (fraction); higher = less gametocyte killing
Settings: 2.5 µM, library set: Broad Institute DOS, incubation time: 72 h
Method in brief: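 Stage V gametocytes of P. falciparum NF54 were held in serum-free screening medium at 0.75% gametocytemia and 1.25% hematocrit, 10 µl per well of a 1,536-well plate, and exposed to compound at 2.5 µM for 72 hr at 37°C under low oxygen. A 3 µl mix of 2.5 µM MitoTracker Red CMXRos with 0.13% saponin was then added for one to two hours, after which one field per well was imaged and red particles of 20–70 µm2 were counted. The viability index equals this count divided by the plate mean from wells given solvent alone.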

Row | Structure (SMILES) | viability index
1 | CCCNC(=O)[C@@H]1[C@@H](CO)[C@@H]2Cn3c(ccc(C4=CCCC4)c3=O)[C@@H]2N1C(=O)c1cnccn1 | 1.01 ± 0.05
2 | C[C@H](NC(=O)C[C@@H]1CC[C@@H]2[C@@H](COc3ccc(NS(=O)(=O)c4ccc(Cl)cc4)cc3C(=O)N2C)O1)c1ccccc1 | 1.02 ± 0.12
3 | Cc1noc(C)c1S(=O)(=O)N(C)C[C@@H]1OCCCC[C@H](C)Oc2ccc(NS(=O)(=O)c3cn(C)cn3)cc2C(=O)N([C@@H](C)CO)C[C@H]1C | 1.1 ± 0.071
4 | C[C@H](CO)N1C[C@H](C)[C@@H](CN(C)S(=O)(=O)c2ccc(Cl)cc2)Oc2c(NC(=O)Nc3ccc(F)cc3)cccc2C1=O | 0.977 ± 0.053
5 | CO[C@H]1CC[C@@H]2CCOc3c(C#N)cccc3C(=O)N(C)C[C@@H](OC)[C@@H](C)C(=O)N(C)C[C@@H]1O2 | 1 ± 0.023
6 | Cc1ccc(S(=O)(=O)N2CC[C@@H]3[C@H](CO)Nc4ccc(-c5cccc(C(=O)N(C)C)c5)cc4[C@@H]32)cc1 | 0.77 ± 0.034
7 | CCc1cnc(N2[C@H](C#N)[C@@H](c3ccc(C#Cc4ccccc4F)cc3)[C@@H]2CO)s1 | 1.083 ± 0.0039
8 | C[C@H]1CN([C@@H](C)CO)C(=O)c2ccccc2-c2ccccc2CO[C@@H]1CN(C)Cc1cccc(C(=O)O)c1 | 1.11 ± 0.039
9 | C[C@H](CO)N1C[C@H](C)[C@@H](CN(C)Cc2cccc3c2OCCCO3)OCc2cnnn2CCCC1=O | 1.06 ± 0.081
10 | CS(=O)(=O)Nc1ccc2c(c1)[C@@H]1C[C@H](CC(=O)NCc3cc(F)ccc3F)O[C@@H](CO)[C@@H]1O2 | 1.109 ± 0.0089
11 | CS(=O)(=O)N1C[C@@H](O)COC[C@H]2O[C@@H](CC(=O)NCc3ccccc3)CC[C@@H]21 | 1.13 ± 0.015
12 | O=C(C[C@H]1CC[C@@H]2[C@H](COC[C@H](O)CN2C(=O)Nc2cc(Cl)cc(Cl)c2)O1)N1CCOCC1 | 1.09 ± 0.043
13 | COCCNC(=O)C[C@@H]1CC[C@@H]2[C@H](COc3ccc(NC(=O)Nc4cccc(F)c4)cc3C(=O)N2C)O1 | 1.16 ± 0.07
14 | COc1ccc(CN(C)C[C@@H]2OCc3cnnn3CCCC(=O)N([C@@H](C)CO)C[C@@H]2C)cc1 | 1.012 ± 0.0093
15 | COc1ccc2c3c([nH]c2c1)[C@@H](CO)N(C[C@]31CCN(CC1)C(C)=O)C(C)=O | 0.9689 ± 0.0023
16 | CN(C)CC(=O)N1CC2(C1)[C@@H](c1ccccc1)[C@@H](CO)N2Cc1cc(F)ccc1F | 1.09 ± 0.057
17 | O=C(NC[C@@H]1[C@H](c2ccccc2)[C@@H](CO)N1C(=O)C1CCC1)NC1CCCC1 | 0.976 ± 0.12
18 | O=C(C[C@@H]1CC[C@@H]2[C@H](COC[C@H](O)CN2C(=O)c2ccc3c(c2)OCO3)O1)NC1CCC1 | 0.945 ± 0.078
19 | CO[C@@H]1CN(C)C(=O)c2cc(NC(=O)Nc3c(C)noc3C)ccc2OC[C@H](C)NC[C@H]1C | 0.973 ± 0.063
20 | COc1ccc2c3c([C@@H](CO)N(C[C@]33CCN(CC3)C(=O)Nc3c(C)noc3C)C(=O)Nc3ccc(F)cc3)n(C)c2c1 | 1 ± 0.062
21 | CC[C@H]1C/C=C/C[C@@H](C)Oc2ccccc2C(=O)N(C)[C@H](C)C(=O)N1.CC[C@H]1C/C=C\C[C@@H](C)Oc2ccccc2C(=O)N(C)[C@H](C)C(=O)N1 | 1.04 ± 0.086
22 | CCN1[C@@H]2Cn3c(ccc(-c4ccc(F)cc4)c3=O)[C@H]1[C@@H](C(=O)Nc1nccs1)[C@@H]2CO | 1 ± 0.003

Row | Structure (SMILES) | viability index
23 | CCOC(=O)c1cc2c(c(-c3cccc(Br)c3)n1)[C@@H](CCO)N(C(=O)NC(C)C)C2 | 0.907 ± 0.017
24 | CN1CCN(C(=O)C[C@@H]2CC[C@H]3[C@@H](COC[C@H](O)CN3Cc3cccc(-c4ccncc4)c3)O2)CC1 | 1.05 ± 0.049
25 | CO[C@@H]1CN(C)C(=O)c2cc(NC(=O)c3cnccn3)ccc2OC[C@@H](C)NC[C@H]1C | 1.03 ± 0.04
26 | C[C@@H]1CN([C@@H](C)CO)C(=O)c2ccccc2-c2ccccc2CO[C@@H]1CN(C)S(=O)(=O)c1ccc([N+](=O)[O-])cc1 | 0.975 ± 0.0086
27 | CNC[C@H]1Oc2c(N)cccc2C(=O)N([C@H](C)CO)C[C@@H]1C | 1.01 ± 0.083
28 | COc1cccc(C(=O)Nc2ccc3c(c2)C(=O)N(C)[C@H]2CC[C@H](CC(=O)NCc4ccc(F)cc4)O[C@@H]2CO3)c1 | 1.02 ± 0.086
29 | NCC[C@H]1CC[C@@H](NC(=O)NC2CCCCC2)[C@H](CO)O1 | 1.03 ± 0.031
30 | CC(=O)N1[C@@H](CO)[C@@H](c2ccccc2)[C@@H]1CN(C)S(=O)(=O)c1ccccc1 | 0.9877 ± 0.0094
31 | CO[C@@H]1CC[C@@H]2CCOc3c(C#N)cccc3C(=O)N(C)C[C@@H](OC)[C@@H](C)C(=O)N(C)C[C@@H]1O2 | 1.03 ± 0.056
32 | O=C(c1ccc2c(c1)OCO2)N1CC[C@@H]2[C@H](CO)Nc3ccc(C#Cc4ccccc4)cc3[C@@H]21 | 1.07 ± 0.018
33 | COCC(=O)N1CC(=O)N2[C@H](CO)[C@@H](c3ccc(C#CC4CC4)cc3)[C@@H]2C1 | 1.11 ± 0.041
34 | CCCNC(=O)N1C[C@@]2(C1)CN([C@@H](CO)c1[nH]c3cc(OC)ccc3c21)C(=O)CN1CCOCC1 | 1.0913 ± 0.00046
35 | C[C@@H]1CN([C@H](C)CO)C(=O)c2cc(NS(C)(=O)=O)ccc2O[C@@H](C)CCCCO[C@@H]1CN(C)C(=O)Cc1ccccc1 | 1.1 ± 0.011
36 | O=C(C1CCCCC1)N1CC(=O)N2[C@@H](CO)[C@H](c3ccc(-c4ccccc4F)cc3)[C@@H]2C1 | 1.09 ± 0.015
37 | C[C@@H]1CN([C@@H](C)CO)C(=O)c2ccccc2-c2ccccc2CO[C@@H]1CN(C)C(=O)Nc1ccc(-c2ccccc2)cc1 | 0.977 ± 0.016
38 | CCC(=O)Nc1ccc2c(c1)C(=O)N(C)C[C@H](OC)[C@@H](C)CN(C(=O)Cc1cccnc1)[C@@H](C)CO2 | 0.997 ± 0.013
39 | CN(C)CC(=O)N1CC2(C1)[C@H](c1ccccc1)[C@@H](CO)N2S(C)(=O)=O | 1.07 ± 0.084
40 | CN1C(=O)c2cc(NS(C)(=O)=O)ccc2OC[C@@H]2O[C@H](CC(=O)N3CCOCC3)CC[C@H]21 | 0.861 ± 0.079
41 | C[C@H]1CN([C@@H](C)CO)C(=O)CCCn2nncc2CO[C@H]1CN(C)C(=O)Nc1ccnc(N2CCOCC2)c1 | 1.03 ± 0.011
42 | O=C(C[C@@H]1C[C@@H]2c3cc(NC(=O)C4CCOCC4)ccc3O[C@@H]2[C@@H](CO)O1)NCCN1CCCCC1 | 1.07 ± 0.12
43 | O=C(NC1CCCCC1)N1C[C@@H]2N[C@H](C1)[C@H]2c1ccc(-c2ccc(F)cc2)cc1 | 0.969 ± 0.05
44 | C/C=C/c1ccc([C@@H]2[C@H]3CNC[C@@H]2N3Cc2cc(F)ccc2F)cc1 | 0.98 ± 0.024
